Test results: patent publication CN114605536A

Target: 天然TSLP
Test: cell-based or functional assay

抑制天然TSLP诱导的SW756-STAT5-Luciferase报告基因细胞STAT5磷酸化活性的IC50: 0.462 ng/mL
B1: QX008N (HZD8G2-57) (antibody, part only; not given: Light chain, part only)
heavy: EVQLVESGGGLVQPGGSLRLSCAASGFSLSSYYMSWVRQAPGKGLEWVGFISYGGSAYHATWAQGRFTISKDNSKNTLYLQMNSLRAEDTAVYYCAREFRSMTYGAEWGIWGQGTLVTVSS[human IgG1 constant region not spelt out]
